Paper PMC9594046, “Identification of Histone Peptide Binding Specificity and Small-Molecule Ligands for the TRIM33α and TRIM33β Bromodomains” (ACS Chemical Biology, 2022)

Assays:
Assay in all cases: AlphaScreen dose-response displacement of biotinylated H3 peptide
TRIM24 PHD-BRD = biological target: T1, TRIM24 PHD-BRD (Homo sapiens, UniProt O15164)
T1 sequence (O15164 with tags, fused parts or gaps): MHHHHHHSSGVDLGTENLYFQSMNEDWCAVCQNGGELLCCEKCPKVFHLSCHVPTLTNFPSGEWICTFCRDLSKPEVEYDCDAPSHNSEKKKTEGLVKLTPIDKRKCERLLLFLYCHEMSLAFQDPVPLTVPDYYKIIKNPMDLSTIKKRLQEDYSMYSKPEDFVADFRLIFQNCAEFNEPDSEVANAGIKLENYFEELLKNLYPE

TRIM33α PHD-BRD = biological target: T2, TRIM33α PHD-BRD (Homo sapiens, UniProt Q9UPN9)
T2 sequence (Q9UPN9 888-1127): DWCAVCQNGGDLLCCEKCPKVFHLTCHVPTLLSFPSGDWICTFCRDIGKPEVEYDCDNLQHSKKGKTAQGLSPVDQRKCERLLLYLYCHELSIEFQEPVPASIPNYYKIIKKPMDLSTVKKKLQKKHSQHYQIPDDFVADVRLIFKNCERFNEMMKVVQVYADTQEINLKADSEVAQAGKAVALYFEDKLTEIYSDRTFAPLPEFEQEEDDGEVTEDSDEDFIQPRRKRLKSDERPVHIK

TRIM33β PHD-BRD = biological target: T3, TRIM33β PHD-BRD (Homo sapiens, UniProt Q9UPN9)
T3 sequence (Q9UPN9 888-1110 isoform Q9UPN9-2 limits assumed): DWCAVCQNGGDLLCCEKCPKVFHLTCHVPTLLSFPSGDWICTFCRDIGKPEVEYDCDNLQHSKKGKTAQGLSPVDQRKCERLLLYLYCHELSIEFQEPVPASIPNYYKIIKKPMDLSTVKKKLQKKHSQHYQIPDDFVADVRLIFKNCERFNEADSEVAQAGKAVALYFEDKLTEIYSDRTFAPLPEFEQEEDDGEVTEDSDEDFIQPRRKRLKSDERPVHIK

[1] = peptide in assay H31-27K9Me3 (PHD)
[2] = peptide in assay H31-27K9Me3K18Ac (DUAL)
[3] = peptide in assay H31-27K18Ac (BRD)

Structure (SMILES) | IC50 (TRIM24 PHD-BRD; [1]) | IC50 (TRIM24 PHD-BRD; [2]) | IC50 (TRIM24 PHD-BRD; [3]) | IC50 (TRIM33α PHD-BRD; [1]) | IC50 (TRIM33α PHD-BRD; [2]) | IC50 (TRIM33α PHD-BRD; [3]) | IC50 (TRIM33β PHD-BRD; [1]) | IC50 (TRIM33β PHD-BRD; [2]) | IC50 (TRIM33β PHD-BRD; [3])
Cn1c(=O)n(C)c2cc(CNCCc3ccc(S(N)(=O)=O)cc3)ccc21 [Compound 8] | > 250 µM | > 250 µM | 103 ± 1.23 µM | > 250 µM | 14.1 ± 1.62 µM | 2.79 ± 0.83 µM | > 250 µM | 126 ± 2.23 µM | 
O=C(CN1CCOC(c2cncc(-c3cccc(F)c3)n2)C1)NCc1ccccn1 (centres unmarked) [Compound 9] | 41.8 ± 5.11 µM | 62.2 ± 4.15 µM | 41.7 ± 7.82 µM | 43.2 ± 5.67 µM | 56.5 ± 10.3 µM | 51.8 ± 3.87 µM | 78.6 ± 9.72 µM | 111 ± 13.5 µM | 59.4 ± 5.73 µM
